Laboratory results taken from publication PMC4336329 (PLoS ONE, 2015).
Screen size: about 310,000 compounds; about 2,200 (0.71%) showed an effect of 50% or more. Effects have a minus sign here. The list shows a part of the results.

target: human ether-à-go-go-related gene (hERG) potassium channel (human, UniProt Q12809); assay: primary screen, population patch clamp on CHO cells stably expressing hERG
Sequence (Q12809 whole entry, looked up): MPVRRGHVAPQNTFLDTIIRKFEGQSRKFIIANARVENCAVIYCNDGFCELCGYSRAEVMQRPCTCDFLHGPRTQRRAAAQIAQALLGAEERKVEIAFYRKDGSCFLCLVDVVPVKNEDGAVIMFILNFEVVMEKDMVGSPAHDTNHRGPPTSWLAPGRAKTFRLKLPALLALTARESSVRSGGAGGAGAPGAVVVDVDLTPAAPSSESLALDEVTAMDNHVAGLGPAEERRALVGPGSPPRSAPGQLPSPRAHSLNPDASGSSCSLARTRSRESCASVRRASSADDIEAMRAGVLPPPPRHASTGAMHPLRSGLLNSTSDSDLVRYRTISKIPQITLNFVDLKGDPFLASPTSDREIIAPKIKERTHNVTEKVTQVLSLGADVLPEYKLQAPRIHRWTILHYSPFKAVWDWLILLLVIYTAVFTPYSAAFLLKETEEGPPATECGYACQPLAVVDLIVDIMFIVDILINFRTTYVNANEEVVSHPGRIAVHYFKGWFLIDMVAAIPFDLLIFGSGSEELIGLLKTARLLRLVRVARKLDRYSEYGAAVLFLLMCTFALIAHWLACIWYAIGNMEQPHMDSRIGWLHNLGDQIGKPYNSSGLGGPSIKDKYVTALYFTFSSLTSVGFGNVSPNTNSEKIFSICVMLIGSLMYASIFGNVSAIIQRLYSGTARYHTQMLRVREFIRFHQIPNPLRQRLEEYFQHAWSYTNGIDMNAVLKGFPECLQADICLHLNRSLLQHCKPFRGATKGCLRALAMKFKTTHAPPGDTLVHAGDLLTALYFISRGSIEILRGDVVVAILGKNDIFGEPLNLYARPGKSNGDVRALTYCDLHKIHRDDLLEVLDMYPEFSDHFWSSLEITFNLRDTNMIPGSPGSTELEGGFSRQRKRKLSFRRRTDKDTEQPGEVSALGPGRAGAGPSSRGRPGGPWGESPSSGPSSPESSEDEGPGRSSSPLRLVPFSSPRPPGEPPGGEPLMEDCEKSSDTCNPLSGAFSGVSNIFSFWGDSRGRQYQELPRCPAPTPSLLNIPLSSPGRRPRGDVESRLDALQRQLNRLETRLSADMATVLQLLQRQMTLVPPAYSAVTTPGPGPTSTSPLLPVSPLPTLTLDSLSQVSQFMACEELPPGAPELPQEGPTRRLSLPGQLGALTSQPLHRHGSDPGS

SMILES	hERG current change (%, negative = inhibition) at 1uM [%]
Cc1cccc(NC(=S)NC(=O)CCc2ccccc2)c1C	10.2
CC(C)c1ccc(-c2csc3ncnc(N4CCN(C)CC4)c23)cc1	10.8
CC(NC(=S)NC1CCC(C(C)(C)C)CC1)c1ccccc1 (stereo not shown)	18.1
CCN(Cc1ccccc1)C(=O)CSc1nc(C)cc(=O)[nH]1	10.9
CSc1cccc(NC(=O)c2cccc3cccnc23)c1	5.79
O=C1CCN(S(=O)(=O)c2cccs2)c2ccc(C(F)(F)F)cc2N1	8.68
COc1ccc(CCNC(=O)COc2ccccc2[N+](=O)[O-])cc1OC	13.4
CCOC(=O)CC(/C(C)=N\O)c1ccccc1 (stereo not shown)	15.2
O=C(N/N=C/c1cccnc1)C(O)(c1ccccc1)c1ccccc1	7.07
CC1(C)C(c2ccccn2)=[N+]([O-])C(C)(C)N1O	17.2
COc1cccc2c1OC1(C)CC2NC(=O)N1Cc1ccccc1 (stereo not shown)	9.84
N#CCc1ccc(Oc2ncccn2)cc1	18.7
COc1ccccc1N(CC(=O)NCc1ccc(F)cc1)C(=O)CCC(=O)Nc1nccs1	4.87
CCOC(=O)N1CCN(C(=O)/C=C/c2ccc([N+](=O)[O-])cc2)CC1	-49.3
CCOC(=O)C1CCN(S(=O)(=O)CCNC(=O)c2ccc3c(c2)OCO3)CC1	9.09
Cc1ccc(-c2csc(-c3ccncc3)n2)cc1	7.86
C=CCn1c(SCc2csc(-c3ccc(C)cc3)n2)nnc1-c1ccccc1OC	3.65
COc1cc2[nH]c(=O)n(CCCC(=O)NC3CCCCC3)c(=O)c2cc1OC	10.7
COc1ccc(S(=O)(=O)NCC(=O)Nc2ccc(F)cc2)cc1	8.36
Cc1ccc(C(=O)CC(C(=O)O)n2cccn2)cc1 (stereo not shown)	8.76
O=[N+]([O-])c1ccc(NCc2ccccc2)nc1	-5.21
Cc1nn(CC(=O)OCC(=O)NCCc2ccc(S(N)(=O)=O)cc2)c(C)c1[N+](=O)[O-]	5.11

SMILES	hERG current change (%, negative = inhibition) at 1uM [%]
COC(=O)c1ccc2c(c1)nc(C)n2CCO	11.4
Cc1cc(C)nc(-n2nc(C)c3c(C(=O)O)cc(-c4cccc(Br)c4)nc32)n1	3.43
Cc1[nH]c2ccc(C(C)C)cc2c1CC(=O)O	13.6
COc1cccc(NC(=O)c2cn(C)c(=O)c3cc(OC)c(OC)cc23)c1	13.7
CC(NC(=O)C1CCCC1)c1ccc(Br)cc1 (stereo not shown)	12.3
COc1ccccc1NC(=O)COC(=O)c1c[nH]c(=O)[nH]c1=O	8.84
O=C(Nc1ccc(N2CCOCC2)cc1)c1cc(F)c(F)cc1Cl	8.7
CCCCN(CC)CCNC(=O)c1cc2c(=O)n(C)c3ccccc3c2s1	13.6
COc1ccc(-c2nn(-c3ccccc3)cc2/C=C/C(=O)O)cc1[N+](=O)[O-]	7.5
NNC(=O)c1cc2nc(-c3cccs3)cc(C(F)(F)F)n2n1	-6.62
COc1ccc(COCC(O)CN(Cc2ccco2)Cc2ccccc2O)cc1 (stereo not shown)	6.64
O=C1c2cccc3c([N+](=O)[O-])ccc(c23)C(=O)N1c1nccs1	5.32
CCC1(C(=O)c2ccccc2)C(c2cccc([N+](=O)[O-])c2)C1(C(=O)OC)C(=O)OC (stereo not shown)	3.5
O.OC[C@@H](O)[C@@H](O[C@@H]1O[C@H](CO)[C@H](O)[C@H](O)[C@H]1O)[C@H](O)[C@@H](O)CO	16.2
Cc1ccc(S(=O)(=O)N(C)CC(=O)Nc2cccnc2)cc1	10.8
Nc1nc(SCC(=O)NC2CCCCCC2)[nH]c(=O)c1-c1ccccc1	2.25
CCOC(=O)C1CCN(S(=O)(=O)c2ccc3c(c2)CCCN3C(C)=O)CC1	3.72
O=C(NC1CCN(Cc2ccc(F)cc2)CC1)c1ccccc1	-15.9
Cc1ccc(S(=O)(=O)NC(CC(C)C)C(=O)Nc2ccncc2)cc1 (stereo not shown)	11
CN(C)CCCN1C(=O)c2oc3ccc(Cl)cc3c(=O)c2C1c1cccnc1 (stereo not shown)	-6.72
N#Cc1c(N)n[nH]c1Cc1cccc2ccccc12	8.95
O=C1OC2(CCCC2)OC(=O)C1=Cc1c[nH]c2ccccc12	8.35

SMILES	hERG current change (%, negative = inhibition) at 1uM [%]
O=C1c2ccccc2N(Cc2ccc(Cl)cc2)C2=NCCN12	-1.71
OCC1(Cc2ccccc2)CCCN(Cc2ccc3c(c2)OCCO3)C1 (stereo not shown)	-1.51
COc1cccc(NC(=O)CSc2nccn2-c2cccc(OC)c2)c1	6.92
O=C(c1ccco1)N(Cc1ccc2c(c1)OCO2)Cc1cc2cc3c(cc2[nH]c1=O)OCO3	7.71
CCOC(=O)c1cnc2c(N=Nc3ccccc3)c(N)nn2c1N	20.6
CCOc1ccc(NC(=O)Cc2c(O)c3ccccc3[nH]c2=O)cc1	15.5
CC(C)(C)NC(=S)NCC1CC1	11.4
O=S1(=O)CCC(NS(=O)(=O)c2cccc3cccnc23)C1 (stereo not shown)	13.7
CCCOc1ccc(NC(=O)C2CC(=O)N/C(=N/N=C(C)/C=C/c3ccc(N(C)C)cc3)S2)cc1 (stereo not shown)	15.4
CCC1(c2ccc(F)cc2)NC(=O)N(CC(=O)N2c3ccccc3CC2C)C1=O (stereo not shown)	8.7
CC1CCC(NC(=O)c2ccc3snnc3c2)CC1 (stereo not shown)	24.1
CCN1CCN(C(=O)c2nn(C)c3c2CS(=O)(=O)c2ccccc2-3)CC1	17.8
Clc1ccc(Nc2nc(NCCN3CCOCC3)nc(N3CCOCC3)n2)cc1	-15.5
CCc1ccc(S(=O)(=O)NCc2cccnc2)cc1	18.6
COC(=O)Cc1csc(NCc2ccccc2)n1	9.75
COc1ccc(S(=O)(=O)N2CCCC2C(=O)NCc2cccs2)cc1 (stereo not shown)	2.29
COC(=O)C1=C(c2ccc(-c3ccccc3)c(F)c2)C[C@@H]2CC[C@H]1N2C(=O)N1CCc2cc(OC)c(OC)cc2C1	15
CCCOC(=O)CCCCC1SCC(NC(=O)OC)C1NC(=O)OC (stereo not shown)	8.79
Nc1nonc1-n1nnc(C(=O)N/N=C/c2ccc(Cl)cc2Cl)c1CN1CCCC1	10.5
CC(NCc1ccc(S(N)(=O)=O)cc1)C(=O)N1c2ccccc2CC1C.O=C(O)C(=O)O (stereo not shown)	-2.79
CCCn1c(O)c(N=NC(=O)CNC(=O)/C=C/c2ccc(OC)cc2)c2ccccc21	14.2
C=CCC(=O)NC(C)c1cnn(-c2ccccc2C)c1C (stereo not shown)	8.99

SMILES	hERG current change (%, negative = inhibition) at 1uM [%]
CCOc1ccc(C(C)=O)cc1Cn1ccsc1=N.Cl	10.4
COc1ccc(C(=O)C2CCN(C(=S)NCCc3ccc(OC)c(OC)c3)CC2)cc1	0.746
O=c1oc(-c2ccco2)nc2sc3c(c12)CCCCC3	5.62
COCCNC(=S)Nc1ccccn1	8.77
COc1ccc(C(CCN2CCCC2)c2c(OC)cc(OC)c3c(-c4ccccc4)cc(=O)oc23)cc1 (stereo not shown)	-2.86
COc1ccc(CNC(=O)C2CSCCS2)cc1 (stereo not shown)	13.6
COC(=O)c1cc(OC)c(OC)cc1NC(=O)c1cccc(OC)c1OC	10.1
O=C(c1cc2nc(-c3ccc(F)cc3)cc(C(F)(F)F)n2n1)N1CCCCC1c1cccnc1 (stereo not shown)	-3.73
CS(=O)(=O)N(CC(=O)N1CCCCCC1)c1cccc([N+](=O)[O-])c1	2.29
Cc1cc(NC(=O)c2cc(-c3ccncc3)nc3c(C)cccc23)no1	10.1
CCCCCCCCCCC[N+](C)(C)CC/C=C1/c2ccccc2Sc2ccc(Cl)cc21.[Br-]	8.65
Cc1ccc(C(OC(=O)c2ccco2)C(=O)NCc2cccs2)cc1 (stereo not shown)	16.3
CCOC(=O)C1=C(COC(=O)c2cc(OC)c(OC)c(OC)c2)NC(=O)NC1C (stereo not shown)	14.3
CC1=C(C(=O)Nc2ccccc2)C(c2cccs2)C(C#N)=C(SCC#N)N1 (stereo not shown)	3.14
O=C(Nc1cccc(-c2ccc(N3CCOCC3)nn2)c1)c1ccc(Cl)cc1	8.13
COc1ccccc1C(=O)Nc1ccc(S(=O)(=O)Nc2cc(C)nc(C)n2)cc1	12.9
CCOC(=O)/C(C#N)=C\c1ccc(O)c(OC)c1	12.7
Cc1ccc(C2CC(c3cccs3)=NN2C(=O)c2ccc(Br)o2)cc1 (stereo not shown)	14.6
CCOc1cccc2sc(N(CCN(C)C)C(=O)c3ccc4ccccc4c3)nc12.Cl	-0.491
Clc1ccccc1CN(Cc1ccccc1)C(c1cccs1)c1nnnn1C1CCCC1 (stereo not shown)	18
CC1=C(C(=O)Nc2ccccc2)C(c2ccc(C)o2)n2ncnc2N1 (stereo not shown)	13.2
COc1ccc(NS(=O)(=O)c2cc(OCC(N)=O)c(C)cc2Cl)cc1	13.1
